The source gives no read counts; variants with many changes may rest on few reads.
B1: OR4K15 (parent)
chain: GUUAACGGUCAUAGGCCAUGGAAACUAGGAGCACCAUUUCGCUGCCAGUGAAGAAAUGAACAAAGAAAAUCUGGGCCAGGCAGGCAUCAAAAGAAAUAGUCUUGCGCUCAACCAGAAAGUCUGUAAUCAUUUUAAGGGUA

Variants of: B1
Assay: self-cleavage, relative activity (ratio to wild type); higher = more cleavage; in vitro, sequencing; the parent is a self-cleaving ribozyme
A62G A66G A89U A116G showed a self-cleavage of 0.51.
A60G A67G A117G U127C gave a self-cleavage of 0.
Variant A64G A66G A67G C107G has a self-cleavage of 0.09.
A59U U100A A125G gave a self-cleavage of 0.21.
C61U A63G U124A gave a self-cleavage of 0.51.
A63U A82G U87G showed a self-cleavage of 0.2.
In the case of A64U U87C A90G, the self-cleavage is reported as 0.43.
With A60U A63G A92G the self-cleavage was 1.39.
Variant A62G A82U A96G has a self-cleavage of 0.12.
For A60G G73A U131C, the self-cleavage was 0.15.
A62U A114U A118G gave a self-cleavage of 0.01.
Work on A64G A78G A91G A98G A110G yielded a self-cleavage of 0.04.
With A66G A111G A117G the self-cleavage was 0.
A62G A68G U120A gave a self-cleavage of 2.63.
With A64G A86U A114G C121A U130A U131C the self-cleavage was 0.82.
With A60G A82U U124A the self-cleavage was 0.12.
A60U A64G U108C showed a self-cleavage of 0.02.
In the case of A63G G84A U102A A117U, the self-cleavage is reported as 0.93.
A60G A82G A95G U120C gave a self-cleavage of 0.23.
For A66G A67U A68G U72C, the self-cleavage was 0.26.
For A62U A91U U120C, the self-cleavage was 1.33.
Variant A64G A78G U100C A135G has a self-cleavage of 0.18.
A62G U103C A116G showed a self-cleavage of 0.71.
Work on A63G A67G U133C yielded a self-cleavage of 0.98.
Variant A64G A89G U120C has a self-cleavage of 0.6.
Variant A62G U108C A126G has a self-cleavage of 0.01.
In the case of A60G A63U A69G A78G A126G U127A, the self-cleavage is reported as 0.13.
For A63G C88U A117G, the self-cleavage was 2.41.
With A66G A92G U127A G137A the self-cleavage was 1.9.
In the case of A59U A62G A95G, the self-cleavage is reported as 1.78.
For A64G A98U A117G, the self-cleavage was 2.99.
Variant A66C U122C A134G has a self-cleavage of 1.43.
Variant A60G A62U G84C U130C has a self-cleavage of 0.26.
Work on A60U A117G U122C yielded a self-cleavage of 1.24.
Variant A63G A86G A116G has a self-cleavage of 1.26.
A64G A92G A114G gave a self-cleavage of 0.54.
With A63G A78C U103C the self-cleavage was 0.12.
With A63U U100C A126G the self-cleavage was 1.97.
A63G A90G U127C gave a self-cleavage of 0.71.
Variant A62U U72A A78G has a self-cleavage of 0.15.
A66G A92G U108C showed a self-cleavage of 0.02.
A60G A86U U120G showed a self-cleavage of 1.59.
In the case of A62G A63G A82U, the self-cleavage is reported as 0.35.
In the case of A60G A63G U70C U133C, the self-cleavage is reported as 0.36.
Variant A60G U102C A114U has a self-cleavage of 0.06.
For A62G A68G A92G, the self-cleavage was 1.04.
With A66G A91G A114G A118G U132C the self-cleavage was 0.31.
Work on A62G A86U U87C yielded a self-cleavage of 1.79.
A62G U72A U87C A111G A140G gave a self-cleavage of 0.01.
In the case of A62G U108C U131C, the self-cleavage is reported as 0.02.
Variant A60G U87C A91G U108A U124G has a self-cleavage of 0.01.
With A66G U72A A117G the self-cleavage was 0.14.
With A60U U72A A91U U100A the self-cleavage was 0.03.
Variant A63G A96G A118G A125G has a self-cleavage of 0.14.
A63G U87C A111U G136U gave a self-cleavage of 0.04.
A66C U87C A114U U131C showed a self-cleavage of 0.01.
In the case of A63G A78G A89U A129G, the self-cleavage is reported as 0.13.
Work on A62G U108G A114C A116G yielded a self-cleavage of 0.
Variant A63G A78G A96G has a self-cleavage of 0.16.
With A60U A68U A69U the self-cleavage was 2.56.
A64G G65A A117G A140G showed a self-cleavage of 2.87.
For A66G A92G A96G A116C, the self-cleavage was 0.09.
Work on A63G C105U U122C yielded a self-cleavage of 0.02.
For A62G A69G U130C, the self-cleavage was 0.63.
A64G A91G A135U showed a self-cleavage of 1.57.
Variant A59G U122A G123A has a self-cleavage of 2.52.
For A66G U72C A92G A117G, the self-cleavage was 0.04.
A60G A66G U87C U122C gave a self-cleavage of 0.92.
In the case of A60G A63G A86G, the self-cleavage is reported as 1.42.
With A64U U127C U133C the self-cleavage was 1.45.
Work on A66G A98U A135G yielded a self-cleavage of 0.41.
A62G A86G A118G showed a self-cleavage of 0.83.
For C61U A114U A125U, the self-cleavage was 0.07.
For A64U U108A U133C, the self-cleavage was 0.01.
With A62U U100C A116U C128A the self-cleavage was 0.49.
A63U U103C U131C showed a self-cleavage of 0.63.
Work on A66G A91G U130C G137A yielded a self-cleavage of 0.8.
A62G A68G A82G U100C A111C A114G showed a self-cleavage of 0.02.
A63G U70C A117G showed a self-cleavage of 0.5.
Work on A60G A129C A135C yielded a self-cleavage of 1.31.
Variant A62C A78U A91G has a self-cleavage of 0.08.
With A63G A82G A92G A117U U130C the self-cleavage was 0.29.
A64G A78G A126C showed a self-cleavage of 0.06.
In the case of C61U A63G A86G, the self-cleavage is reported as 1.08.
In the case of A60G U72C G119U, the self-cleavage is reported as 0.19.
A66G A89G U130C gave a self-cleavage of 0.9.
Work on A62C U87C U122C yielded a self-cleavage of 0.35.
Variant A66G A111G A114C A117G has a self-cleavage of 0.
Variant A60G A78G A90U U120C A125G has a self-cleavage of 0.02.
Variant A62U A116C U130C has a self-cleavage of 0.08.
Work on A64U A92G A116G yielded a self-cleavage of 1.31.
In the case of A66G C113A A114G U132C, the self-cleavage is reported as 0.
For A64G A69G G75A A118G, the self-cleavage was 0.13.
For A60U G65A A114G U122C, the self-cleavage was 0.11.
With A59U A60G A64G A118G U122C the self-cleavage was 1.91.
A63G A64G G73A A117G gave a self-cleavage of 0.22.
For A64U A94G U102C, the self-cleavage was 1.86.
Variant A60G A92U A95G U130C has a self-cleavage of 1.38.
Work on A66U A86U U87C A114U U130C yielded a self-cleavage of 0.01.
Work on A59U A82C U102C A129G yielded a self-cleavage of 0.17.
G65U A68G A118G showed a self-cleavage of 1.58.
A59G U122C A135G gave a self-cleavage of 1.14.
In the case of A60G A64U A67G A90U U131C, the self-cleavage is reported as 0.5.
A64G U87A A116G U127C gave a self-cleavage of 0.63.
Variant A62U U70C A116C has a self-cleavage of 0.03.
A62G A68C A114G showed a self-cleavage of 0.29.
A62G A66G A68G A78G A126G showed a self-cleavage of 0.07.
With A62U C101A U102C A110G U120C the self-cleavage was 0.09.
A66C A95G U122C gave a self-cleavage of 2.61.
A64G U72C C113U A129G showed a self-cleavage of 0.02.
A64G A110C U120C gave a self-cleavage of 0.28.
Variant A66U A91U A111U U120A has a self-cleavage of 0.13.
With A60U A94G U131C the self-cleavage was 1.26.
G65A A116G U120C gave a self-cleavage of 0.45.
With A66G U127C U130G the self-cleavage was 0.57.
For A60G A62G U102C, the self-cleavage was 1.96.
In the case of A64G A66G A69G A92G, the self-cleavage is reported as 0.72.
With A60G A63G A91G A111G the self-cleavage was 0.03.
A62U C112A U132G showed a self-cleavage of 0.01.
With A60G A78G A111G the self-cleavage was 0.03.
For A60G A86G U120A, the self-cleavage was 0.65.
Variant A62G A68C U122C has a self-cleavage of 2.03.
Work on A59G U100C U108C U131C yielded a self-cleavage of 0.
In the case of A66G U108A U124G, the self-cleavage is reported as 0.01.
With A62U U70C A111G A118U U130C the self-cleavage was 0.
Work on A64G U70A A135C yielded a self-cleavage of 1.61.
A63U A64C A98G gave a self-cleavage of 0.18.
With A62C A89G A90G the self-cleavage was 1.24.
Work on A63G U102C G123A yielded a self-cleavage of 1.39.
Variant A59U A82G A95U C109A A111G has a self-cleavage of 0.02.
With A63G U131C G137A the self-cleavage was 2.16.
Variant A62G U72A A91G G104A U130C has a self-cleavage of 0.
Work on A62G A91U A125G yielded a self-cleavage of 0.4.
For A62U A67G A78U A134U, the self-cleavage was 0.41.
A63G A114G U131C gave a self-cleavage of 0.03.
A63G A89U U120A gave a self-cleavage of 2.44.
Work on A62C U87C A94G yielded a self-cleavage of 0.99.
A63G A94G U124G showed a self-cleavage of 0.36.
Variant A64G U102C C109U U120A has a self-cleavage of 0.68.
In the case of A63U G104A A114G, the self-cleavage is reported as 0.06.
A60U U70C A78C A134G gave a self-cleavage of 0.23.
Work on A63G U72C U87A U103C yielded a self-cleavage of 0.21.
Work on A63G A125G U127C yielded a self-cleavage of 0.31.
A66U A69C U70C A78G A118G showed a self-cleavage of 0.13.
With C61U A92G U103A the self-cleavage was 0.84.
In the case of A63G A89U U127A, the self-cleavage is reported as 2.58.
In the case of A60G A63G A114G A118G, the self-cleavage is reported as 0.68.
For A60G A68G A91G U108C, the self-cleavage was 0.01.
Work on A63G A110G U120A yielded a self-cleavage of 0.13.
With A63U A86U U108C the self-cleavage was 0.01.
Work on A66G U72C U122A U127C yielded a self-cleavage of 0.13.
A64G A67U A135G gave a self-cleavage of 2.79.
Variant A66G U72A A125G has a self-cleavage of 0.
Variant A62G A67G G74U has a self-cleavage of 0.21.
A63G A82U A96G U108C showed a self-cleavage of 0.05.
With A60G A69U A135G A140G the self-cleavage was 2.47.
For A60G A94U A110U U120C, the self-cleavage was 0.84.
With A64G A78U G80U A82U A90G A96G U103C the self-cleavage was 0.03.
For A62U U70C C105A U130C, the self-cleavage was 0.01.
A60U U100C C109U A110G showed a self-cleavage of 0.03.
For A66G U87C U108C, the self-cleavage was 0.01.
For A60U G75A G138A, the self-cleavage was 0.09.
In the case of A66G A78U G138A, the self-cleavage is reported as 0.18.
Variant A62G A64G A111U has a self-cleavage of 0.14.
Variant A59U A62G A78U U87C has a self-cleavage of 0.32.
In the case of A60G A69G A129G, the self-cleavage is reported as 0.8.
Work on A66G U124C A126G U130A yielded a self-cleavage of 0.66.
